167 variants from the RNAGym collection of RNA variant scans (doi:10.7554/elife.90254) can be followed below.

First the molecules themselves.
B1: OR4K15 (parent)
chain: GUUAACGGUCAUAGGCCAUGGAAACUAGGAGCACCAUUUCGCUGCCAGUGAAGAAAUGAACAAAGAAAAUCUGGGCCAGGCAGGCAUCAAAAGAAAUAGUCUUGCGCUCAACCAGAAAGUCUGUAAUCAUUUUAAGGGUA

The source gives no read counts; variants with many changes may rest on few reads.

In the data set the parent is B1. Description: self-cleavage, relative activity (ratio to wild type); higher = more cleavage; in vitro, sequencing; the parent is a self-cleaving ribozyme.
With A59U A94U A111G, the self-cleavage was 0.02.
With A60G A91G G104U, the self-cleavage was 0.01.
For A59G U103C A111G the value was 0.
For A59G U72C U120C G137U, the self-cleavage came out at 0.03.
For U57C A89U A90G the value was 0.75.
As to A60G A89G A94G C112U, the self-cleavage amounted to 0.04.
For A59G U87C U122C the value was 0.77; for A56G A63G A118G A125G, 0.14.
For A59G A129G U130C, the self-cleavage amounted to 1.97.
As to A59U A64G A94G U102C, the self-cleavage was 2.17.
For the variant C61U U130C U131C, the self-cleavage stood at 0.43.
Turning to A60G A67G A69U A126G, the self-cleavage was found to be 0.83.
For G58U A66G A92C G138A, the self-cleavage was 0.9.
For A56G A66G A114U the value was 0.03.
As for A59G A92G A118G, the figure is 0.56.
Consider A59G U102C A114G, for which the self-cleavage is 0.46.
Regarding A56G U57A U103C A116G, the self-cleavage was 0.06.
As to U57A U70C U108A, the self-cleavage stood at 0.02.
For A59G A86G A110G C121U A129G the value was 0.31.
On to A59U U103C A116G U127C, for which the self-cleavage was 0.11.
In the case of A60G A62G A67G A82G A96G U131C, the self-cleavage is 0.05.
As for A56G A68G U103G, the figure is 0.05; as for U57C A116G U122C, 0.67.
On to A56G G73A A82C A135G, for which the self-cleavage came to 0.29.
For the variant A59G A60G A62G U108C, the self-cleavage was determined as 0.02.
As for A56U U57C A117G U120C, the figure is 0.3.
For U57C A78G A91U A117U the value was 0.12; for A60G U72C U87C A92U G115C, 0.02; for C61G A68G U127C, 2.49.
As for A59U U87C A94G, the figure is 2.57.
Take A59G U102C U103C: the self-cleavage was found to be 0.16.
As for A59U A89G A94G, the figure is 1.02; as for A56G U70C U102C A116U, 0.42.
For A56G U57C A95G A98G, the self-cleavage worked out at 1.46.
G58A A62G U87C A89G U120A U127A: the self-cleavage stood at 0.17.
With A59G A117U U139A, the self-cleavage amounted to 0.91.
For U57C A89G A114G U127G the value was 0.3.
For A59G A60G U120A A125G the value was 0.29.
On to A60G C71U A129G, for which the self-cleavage worked out at 0.13.
On to A59G U131C U133C, for which the self-cleavage stood at 0.97.
As for A56G A63G A110G, the figure is 0.2; as for A59G A86G A90G, 0.39; as for A60U U87C A126U U127C, 0.27.
A60G A63G A64G C105A U124C: the self-cleavage came out at 0.03.
In the case of A60G A62G G137U, the self-cleavage is 0.92.
On to A60U A62U U127C, for which the self-cleavage was 0.44.
Consider A60G A67G A82G U100C, for which the self-cleavage was found to be 1.14.
As for A56G A95G U108C A125G, the figure is 0.01.
For the variant A56G A90G C107U A110U, the self-cleavage stood at 0.
For A60G A64G A86G the value was 1.1; for U57C A60G U102C U131C, 1.85.
Turning to A56G A64G U124C, the self-cleavage was 0.84.
As for A56G U87C U100C, the figure is 2.11; as for C61U A68G C76A A125G, 0.06.
For A59G A94G U97C the value was 0.92; for A56G A82U A98G C128U, 0.05; for A60G C112U U127C, 0.02.
For the variant A59G A89G A117G, the self-cleavage worked out at 1.6.
For A60G U87C A95G U102C the value was 0.92; for U57C A69G U122C G137C, 0.72.
As for A60U A62G U102C, the figure is 2.25.
For A60G A89G A116U A117G, the self-cleavage worked out at 0.25.
With A56G A63G A91G A134G, the self-cleavage amounted to 0.73.
As to A59U A67G A98G U100A, the self-cleavage turned out to be 0.21.
As to U57C G104A A110G, the self-cleavage came to 0.01.
As for A56G A92G A117G U131C, the figure is 1.4; as for A59G A62U G75A A98U, 0.08.
For the variant U57A A66G U103C, the self-cleavage is 0.33.
With C61G U97C U102C, the self-cleavage was determined as 2.24.
G58U A92G U97C: the self-cleavage is 0.94.
As for A59G U124C U127C, the figure is 0.77; as for A59G G106A A135G, 0.02.
For A60G A62G U103A U130C the value was 0.2.
For A60G A68G U97A C112U the value was 0.04.
Turning to A59G A63U A78U A118G, the self-cleavage came to 0.18.
In the case of A56G A116G U120C G123A, the self-cleavage came to 0.26.
As for A60C G65A U100C U120C, the figure is 2.12.
As for A60U A98G U100C, the figure is 1.53; as for U57C U72C A110U, 0.22.
As for A60G A69G A114G A126G, the figure is 0.17; as for A56G A68G U102A, 0.74; as for A60U A91G A140G, 1.14.
As to A59G U72A A89G A95G, the self-cleavage is 0.14.
As for U57A U103C U131C, the self-cleavage turned out to be 0.17.
In the case of A56G A66G A67G U120C, the self-cleavage stood at 1.26.
Consider A56G A59G A118C, for which the self-cleavage came to 1.02.
As for A59G G65U G74U, the figure is 0.34.
For A56U A92G U103C, the self-cleavage was determined as 0.09.
For A60G A64G A68G A96G C105G A110U, the self-cleavage came out at 0.01.
For A60G A82G U122C the value was 0.23; for A60U U100C A111C A126G, 0.
As for A59G A62C C105A U122C, the figure is 0.01; as for A59U A63G A118G, 1.74; as for U57A A95G C109U, 0.45.
As for A60U U102C A118U, the figure is 1.91; as for A59G A66G U102A A135C, 0.58; as for A59G A62G A110U, 1.37.
As to A59G U72A U103C, the self-cleavage was 0.19.
For U57C A78G A95G C112A A114U the value was 0.01.
For U57C A91G U130C U133A A140G the value was 0.92.
For A60G A67G U100C the value was 2.12; for A59G C107U U108C A114U, 0.02; for A56G A96G A98G U108A, 0.02.
With A59U A66U A98G U131C, the self-cleavage was 1.05.
On to A59G A62G A69G, for which the self-cleavage was determined as 1.27.
Turning to A60U A67G U122C, the self-cleavage came to 1.95.
As for A60G A64G G73A U139C, the figure is 0.11; as for A59G A117G U130C, 1.3; as for U57C A89C U108C, 0.02.
As for A59G A98G U131C, the figure is 0.78.
On to U57C A89G U100C, for which the self-cleavage is 2.33.
For the variant C61U U122C U124C, the self-cleavage was found to be 0.69.
With A56G A98G U131C A134G, the self-cleavage was 0.11.
As to A56G A68C G73A, the self-cleavage amounted to 0.16.
For A56G A69G A82G A91G the value was 0.19.
For A56G A68G U100C A118G the value was 1.5.
As to A60G A86C A126C A129G, the self-cleavage came out at 0.61.
As to A60U A114G U122A, the self-cleavage came to 1.09.
Consider A59U A63G A86U A111U, for which the self-cleavage came out at 0.1.
For U57A A96G A116G, the self-cleavage was found to be 0.49.
On to A60G G74U G80U A96G U100C U108A U120C, for which the self-cleavage amounted to 0.
As for U57C A94G C128A, the figure is 0.81; as for A56G U97C A111G, 0.03.
As for A59G A96G U100C A111G, the figure is 0.02; as for U57C A62U A114G, 0.18.
On to A56G A95G A140G, for which the self-cleavage was 2.02.
For the variant A59U A66G A126G, the self-cleavage was 2.26.
For A56G A67G U103C A118G the value was 1.08; for A56G U70A G137A, 1.62.
For the variant U57C A78G U102A, the self-cleavage was determined as 0.02.
For A56G A67G U124C the value was 1.2; for A60G U70C U100C A118G, 0.94.
As for A59G A67U U87C A140G, the self-cleavage is 2.03.
For A59G A90G A94G U103C C113A the value was 0.14; for A60G A89U A114G U122C, 0.39.
For A60U U127C A129G the value was 0.57.
A60G A69U A82G U139C: the self-cleavage turned out to be 0.59.
For A59G A78U G136A, the self-cleavage is 0.35.
As for A59G C61A A62G A92G, the figure is 0.98; as for A59G A78G A91G, 0.11.
For A59U A60G A67G A96G, the self-cleavage worked out at 1.5.
Take U57C U124A A129G: the self-cleavage stood at 1.23.
As for A56G A64U A82U, the figure is 0.14; as for A56U A60G A82G, 0.54.
For A56G A95G A114U the value was 0.09; for A59G U72C A94G, 0.14.
Take A59G A60C A91G: the self-cleavage came out at 0.89.
As for U57A A78U U108A, the figure is 0.04.
For U57C A82G A117G U130C, the self-cleavage was 0.21.
Take U57C A89G U122C: the self-cleavage turned out to be 0.61.
U57C A60G C88U A98G U108C: the self-cleavage was 0.02.
As for A60G A68G A118U, the figure is 0.58.
With A60G A95G U97C U122C, the self-cleavage came to 0.48.
For A56G A82C U122C the value was 0.03.
As for A56G U97C A98G, the figure is 1.51; as for A60G A67U A118G, 0.61.
In the case of U57A A82G A90U, the self-cleavage is 0.76.
As for A59U A69G U130C, the figure is 0.38.
Turning to A56G A68G U100C, the self-cleavage was determined as 1.95.
As for A56G A82G A117G A118G, the figure is 0.06; as for G58U A69C A91G A126G, 0.52; as for C61U A68G A78U U120C A126U, 0.3.
Turning to A59U A117G G137A, the self-cleavage was determined as 1.18.
For U57C U108C A117G the value was 0.02.
Take U57G A64G A78G U139G A140U: the self-cleavage stood at 0.17.
As for A59G A89C A92G G104A G123A, the figure is 0.03.
As for U57C A114C A126G, the self-cleavage came out at 0.01.
